This is an account of results in publication PMC10726135.

Some of the results follow. At the low end of the ranking the order means little. Measured with an extract: partners may take part in the binding.

This assay has as its target T1, HNF4alpha8 (COS-7 nuclear extract) (UniProt P41235-5).
T1 sequence: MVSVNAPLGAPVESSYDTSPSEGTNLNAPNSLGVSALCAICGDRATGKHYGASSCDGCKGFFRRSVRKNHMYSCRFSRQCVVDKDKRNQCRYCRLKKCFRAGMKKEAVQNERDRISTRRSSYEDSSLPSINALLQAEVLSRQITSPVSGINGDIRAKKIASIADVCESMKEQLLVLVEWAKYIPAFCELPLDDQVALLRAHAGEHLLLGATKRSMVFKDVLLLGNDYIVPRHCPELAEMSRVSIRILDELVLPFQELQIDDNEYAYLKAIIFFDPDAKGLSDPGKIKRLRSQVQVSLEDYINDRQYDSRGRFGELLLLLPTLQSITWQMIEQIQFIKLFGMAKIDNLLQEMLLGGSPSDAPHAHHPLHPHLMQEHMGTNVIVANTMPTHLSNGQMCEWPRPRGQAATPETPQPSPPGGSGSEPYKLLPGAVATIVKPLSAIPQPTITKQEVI
The experiment in a line: protein-binding microarray. The settings on record: COS-7 nuclear extract on double-stranded Agilent 4x180k PBM; binding buffer, salt, pH and temperature not given; high values mean tight binding; double strand, one strand shown; sequences stand for … in …GCCTAGGGAGATTAGAGTATCGGTCGA
Regarding TCAAGATGTCTCAAGATATCTATATGTTTA, the binding signal (log2 normalized intensity) was 0.953.

CTCAAGAATTGTCTAACCGCAGCAAGACAC: the binding signal (log2 normalized intensity) was -1.4. In the case of CTTTCAAGGCAGATTTCTGTCTTTGATCTG it was 1.23; in that of AGTTCAAACTCTGAAAGCACTAAGTTACCT, -1.46; in that of CACAAAAAGGCTGTCACACTTGCCCTTTGC, 5.42. As to GGGCTAGTCCCTGAGTATTATCTTTTTAAT, the binding signal (log2 normalized intensity) is -0.131.

For the sequence GTCTTCCTCAAATTACAAAAGGAGTTGGGG, the binding signal (log2 normalized intensity) worked out at 0.108. In the case of CCTTGGATTAAAGGAGAACTGAGTAGGAGA it was -0.768; in that of GATAACACTGATAACATGAGGTAGAGGGAC, -1.16; in that of CATTAAGCTTAGCGTTATCAAACCAAATAT, -0.632.

Consider TCAAGAGAAATGTTATCTCAGTAGACTAAC, for which the binding signal (log2 normalized intensity) is -1.22.

As to TGCAAGTTACCTTGGGGTCAAAGTACATCC, the binding signal (log2 normalized intensity) is 9.54. Regarding TTTGATCAGCTGGTCCTTCAAGTGTGACCC, the binding signal (log2 normalized intensity) was found to be 4.35.

Consider AATACAGCACTCAAATGATCAAAGAAGCCC, for which the binding signal (log2 normalized intensity) was -1.38.

As for TTAGGTGGACAGGGGTGTGTTGACCGATAA, the binding signal (log2 normalized intensity) is 1.77. Regarding ATAGCTGAAATTTGTATCTTGGGTTAGGCC, the binding signal (log2 normalized intensity) was determined as 0.581. In the case of GTCTCAAAAAAAAAAAAAAGGCAGTCCTTA it was -1.32. Next, GGCTGTCTCAGTGGGTGGGAAAGGGTGCTC: 0.651; ATCCCTCGTAGGCAGGGCCAGATAAAGCAG: -1.4; ACAGCACTTAGGGTTCAAAGGTTGTTGAGC: 6.67. In the case of GCATCTTCAACTGTGTGAGCTGATCACACC it was -0.289; in that of TTAGTGGAGTATAGGAACATGAACTGAGCA, -0.356. For CTCTGGCCCTTAAAGGCTTTTGCAAGAAAA, the binding signal (log2 normalized intensity) is -1.26. For the sequence CTGCTCAGGGTGGGGTCTCGCTGCTTCGGC, the binding signal (log2 normalized intensity) is -1.32. As to TAAGCACCCAGATAAGTTATCCTTGTTCTA, the binding signal (log2 normalized intensity) was 0.773.

For GCTGGGATAACCGAGGCTGACAGCAGAGAG, the binding signal (log2 normalized intensity) was -1.27. With GTCCAGTTGAATGATGGCGAGTGTGCAATT, the binding signal (log2 normalized intensity) was 0.26. In the case of TTTCCCTGGGGTCAATAGTTGTGTAAATAG it was 2.34; in that of AAGTTCATGGAAAGTTTCACTTTCTCTTAT, 0.0777. TTCCAGCAAAGAGATTAGGACACAGCAGAG: the binding signal (log2 normalized intensity) is -1.3.

As for TCGAAGGCCAAGGGATTTCAGTGCCCTCAT, the binding signal (log2 normalized intensity) stood at 1.7. Next, ACACCAAGCAAGCTCTGCAATAGAGCCACA: -1.39; TCGAACAGTTGGCCACCTTTGGCCGAAACT: 2.98; GTCCTCCTGTGGCCACAGAGCGCCTAACTA: -1.27. As to CCCTCTGAGTGTTTGACCTTTCACCCAGAA, the binding signal (log2 normalized intensity) amounted to 7.2. As for GGCGGGTTCTGCCATCTCGCAGAAAGTGGC, the binding signal (log2 normalized intensity) was -0.221.

As to CTAGCATTAGGACCTGTTTGTCTTGCTGGG, the binding signal (log2 normalized intensity) was determined as 1.33.

TGACTTTATCATTGGACTCTCTCATTCTGA: the binding signal (log2 normalized intensity) was 2.51. Next, ATAGACTGTCCCTCAGTGTGGGACTTTGGT: 3.52. Next, GCAGAAGGTGTTTCAGATGGACCAAAGGTC: 6.13; AGAACACAGTCATTTATTCACTTATTTGTT: -0.755. For the sequence GGAGTTGTCTGTCCAGTTCAGGAGTTATCA, the binding signal (log2 normalized intensity) worked out at 0.137. Next, CCTGGGTGCTCCCTCCCCCTGCATGAACCT: 4.34.

For GTTAGGGCCATTTGGTCTGTAGTGTTGCTC, the binding signal (log2 normalized intensity) was found to be 1.37.

TTTGGGTAATAACATGTAATTGCATGACCA: the binding signal (log2 normalized intensity) stood at 1.79. In the case of AGCCTTTCCTCAGATGGAATGTGTGCCCGT it was 1.79. In the case of TTAGGATAGGGTCAGTCTTTGTTCTAGTAA it was 1.37; in that of CGTCACCTTTATCGAACCTATTGTTTAATC, 1.37. In the case of TGCATGTGTTCACACCACACTCTCCTCCTG it was -1.17; in that of CAGACAGCAGTCTGAGTAGGAAAGACTTGC, -0.262; in that of CTTCAGCATCTTCAACTGTGTGAGCTGATC, 1.06.

As to TTAGGGAGGGGCCAGGACAAAGGTCCTGTG, the binding signal (log2 normalized intensity) came to 2.51. Next, TGCCTAAATCCAAAGGGCATCAGCCCCAAT: 1.2. In the case of GCTCTGTTTTCTGACGCAACAGAAAACTCA it was -1.48; in that of TAGAACAGGGCTTTAATTACCTGTTCTAAG, -1.34; in that of AGACTTTTAAGTGGGGTCAAAGGGTACAAA, 5.92.

As for AAAGGTCAGTCCCGCAGTGAGGGACAAGGC, the binding signal (log2 normalized intensity) is -0.103. In the case of CTAGCAAATACAAGGACACTGAAAGGCATT it was -1.29.

For TCTGGTAAACAGCTGACAATAAATTCCAGG, the binding signal (log2 normalized intensity) was -1.3. For ATTTGACCCTTGGCCAGGTGCAGTGGCTCA, the binding signal (log2 normalized intensity) stood at 3.54. In the case of CTTATAAATCTTCAACTGGAGGATAAAGTT it was 1.09; in that of AATGTCTGCTGTTGCACCTCTTATCAAGCG, -1.3; in that of TCCTATTCGGTGCTGACCTTTGTTCACATT, 6.64. Next, GCTCACTTGGGGGTGGGGTGCTGCCTTTCC: 0.199; CATCATCTCAGGGAGTGCAAACTTCTTTGA: 0.928; ATAAAGAACGCTCACAGAAAGAAGAGACAG: -1.31. Next, GTCTCTCTCTCATGCTATGCTCTCTCTCCA: -0.848; CAGCATGGTATGTGGCTTGCCGCATTCCCA: -1.17; CCTTTCCCTTCTTCTCCTCCCAACAGGTAT: 2.53. For the sequence TGCTCCTGCTTGCTGGCTTTCCCACCCATG, the binding signal (log2 normalized intensity) turned out to be 0.887.

For the sequence AGAACTGGTCCGCCTTCATTCCTAGCCCCA, the binding signal (log2 normalized intensity) was 2.59. Turning to TCTACTTGGTGGGAGGAGGGGGGAGGGTCG, the binding signal (log2 normalized intensity) is -1.13. TTTCTCTGCACACACTCACAGAACACAGTG: the binding signal (log2 normalized intensity) is -1.39.

AACTTTCTTTTTGTTGTTAGAACAAAGTCC: the binding signal (log2 normalized intensity) was 4.6. In the case of GGCAGCCAGCTGGTTTGCCTCTCTTAGGTG it was -1.29.

Consider AGCAGCTAGCAAATACAAGGACACTGAAAG, for which the binding signal (log2 normalized intensity) was -1.33. In the case of ACACATGATAAGATTTATCTCTCCAAGGTA it was -1.25; in that of CAGAAGGCGCTGAACTTTGCCTTGTACACA, 3.91. Next, AATCCTCAGCCTTCTCCGCGGCGGGCCCTC: -1.42; TATATTGGATAGTGCCTTTTCTAATATCTA: 0.499; TAACGACCTTTGGGCTAAAAAGGAAGCTGT: 2.73.

As for TGGAGAAAGCAGCCAACCAGAGGCTGAAGT, the binding signal (log2 normalized intensity) was -1.17.

Regarding TAGGAGACTGTCTTAGGAAAGAACAGGTCA, the binding signal (log2 normalized intensity) worked out at 0.841. With GAGGAGTTAAAGCACAGTGTCTTTGTTTGG, the binding signal (log2 normalized intensity) is 1.49. Next, GTCTGGCATACAGGGTCCAAAGGTGTCAAG: 5.19; CCAGAATTCTCCCTGCAGTCCTCTGCTTAT: -1.22. Next, CAAATTCCACACCCCCCACTCTTCATATCT: 3.32; TCGTCCCGTCAATCTGCAGCCGCCGGAGAA: -1.13. CCAGGAAGCAAGACAATGCACTCATAACTA: the binding signal (log2 normalized intensity) is -1.4. Next, GGTAGCCACTGACAGGAGGTATGCCAGGAA: -1.37; CCTGGTATTAATGAGGCAAAGGTCAGGAGT: 4.67; CTGGACTATGCCTTGAACTTTAAGGCACCT: 1.67. In the case of TTTGACCGCTCATTTGATCCTCACAGTGCC it was 0.107.
